Article PMC9228641 (Journal of medicinal chemistry, 2021)

System: NS3/4A protease (WT GT-1a, D168A variant, and GT-3a)
Settings: compared to the (S)-epimer 30

COc1ccc2nc(O[C@@H]3C[C@H]4C(=O)N[C@]5(C(=O)NS(=O)(=O)C6(C)CC6)C[C@H]5C=CCCCCC[C@H](NC(=O)O[C@H](C)C(C)C)C(=O)N4C3)c(C(F)(F)F)nc2c1 (stereo in doubt) [Compound 31, (R)-3-Methylbutan-2-yl ((2R,6S,13aS,14aR,16aS,Z)-2-((6-methoxy-3-(trifluoromethyl)quinoxalin-2-yl)oxy)-14a-(((1-methylcyclopropyl)sulfonyl)carbamoyl)-5,16-dioxo-1,2,3,5,6,7,8,9,10,11,13a,14,14a,15,16,16a-hexadecahydrocyclopropa[e]pyrrolo[1,2-a][1,4]diazacyclopentadecin-6-yl)carbamate]
fold improvement in Ki values: 2 fold
